Assay results reported in PMC4336329 (PLoS ONE, 2015).
Screen size: about 310,000 compounds; about 14,000 (4.5%) showed an effect of 50% or more. The effect is printed as a negative number. The list shows a part of the results.

target: human ether-à-go-go-related gene (hERG) potassium channel (human, UniProt Q12809); assay: primary screen, population patch clamp on CHO cells stably expressing hERG
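Also: peak tail current of the secondary pulse compared with the same well before compound.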

Sequence of human ether-à-go-go-related gene (hERG) potassium channel (Q12809 whole entry, looked up): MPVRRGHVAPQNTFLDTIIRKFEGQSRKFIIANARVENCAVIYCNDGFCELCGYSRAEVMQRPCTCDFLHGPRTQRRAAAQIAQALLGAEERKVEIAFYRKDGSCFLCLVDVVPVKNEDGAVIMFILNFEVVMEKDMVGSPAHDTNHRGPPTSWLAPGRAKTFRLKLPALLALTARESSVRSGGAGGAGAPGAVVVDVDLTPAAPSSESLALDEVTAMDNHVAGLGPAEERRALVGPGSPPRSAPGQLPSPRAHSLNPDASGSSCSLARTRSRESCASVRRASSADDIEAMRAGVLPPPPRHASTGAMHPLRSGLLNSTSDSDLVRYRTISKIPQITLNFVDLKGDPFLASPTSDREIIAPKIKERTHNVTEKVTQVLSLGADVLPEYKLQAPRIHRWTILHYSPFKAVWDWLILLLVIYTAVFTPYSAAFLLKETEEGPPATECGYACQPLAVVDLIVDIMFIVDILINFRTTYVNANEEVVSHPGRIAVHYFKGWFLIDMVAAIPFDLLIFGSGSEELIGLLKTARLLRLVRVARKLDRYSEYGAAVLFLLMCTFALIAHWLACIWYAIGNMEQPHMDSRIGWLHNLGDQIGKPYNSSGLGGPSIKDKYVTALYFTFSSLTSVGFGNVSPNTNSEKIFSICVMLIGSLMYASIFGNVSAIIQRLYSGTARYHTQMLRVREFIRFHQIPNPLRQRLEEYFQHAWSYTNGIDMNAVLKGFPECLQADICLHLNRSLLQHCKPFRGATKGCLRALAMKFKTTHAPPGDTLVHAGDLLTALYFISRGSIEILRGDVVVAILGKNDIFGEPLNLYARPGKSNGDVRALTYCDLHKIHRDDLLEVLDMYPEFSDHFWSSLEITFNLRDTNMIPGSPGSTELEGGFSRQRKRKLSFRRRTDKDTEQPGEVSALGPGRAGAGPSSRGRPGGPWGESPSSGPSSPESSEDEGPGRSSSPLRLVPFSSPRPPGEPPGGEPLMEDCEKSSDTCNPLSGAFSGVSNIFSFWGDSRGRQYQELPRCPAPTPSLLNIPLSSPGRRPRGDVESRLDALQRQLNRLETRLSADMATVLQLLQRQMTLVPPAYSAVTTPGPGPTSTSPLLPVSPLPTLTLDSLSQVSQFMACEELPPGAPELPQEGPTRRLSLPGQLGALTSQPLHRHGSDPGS

Structure (SMILES) | hERG current change (%, negative = inhibition) at 10uM
CCOC(=O)c1c(C(C#N)C#N)cc(C)nc1C | 8.69%
COc1ccc(-c2c(C(C)=O)c(C)n(C)c2C)cc1 | -5.72%
CN(C)c1ccc(N=Nc2ccc(S(N)(=O)=O)cc2)cc1 | 17.9%
Cc1ccc(O)c(NC(=O)c2cc([N+](=O)[O-])ccc2Cl)c1 | -6.06%
CCOC(=O)C(CSCC(=O)c1ccc(Cl)cc1)NC(=O)OC(C)(C)C (stereo not drawn) | -9.55%
CCOC(=O)/C(C#N)=N/Nc1ccccc1C#N | -13.6%
Cc1ccc(NC(=O)CNCC(c2ccccc2)N(C)C)cc1F.O=C(O)C(=O)O (stereo not drawn) | -38.1%
CC(=O)Nc1ccc(S(=O)(=O)N[C@@H](C)C(=O)N2CCN(c3ccccn3)CC2)cc1 | 11.1%
O=C(O)C1CCCCC1C(=O)NCc1ccccc1 (stereo not drawn) | -3.52%
COc1ccccc1C1=NOC(CN2C(=O)c3ccccc3S2(=O)=O)C1 (stereo not drawn) | -22.8%
CCOC(=O)c1c(NC(=O)OC)sc(C(=O)N(C)C)c1C | -9.46%
CN(CC(=O)Nc1ccccc1Cl)C(=O)COC(=O)c1ccc(=O)n(Cc2ccccc2)n1 | -12.4%
COc1cc(-c2nc(-c3cccnc3)no2)cc(OC)c1OC | 16%
CN(c1cccc(NS(=O)(=O)c2ccccc2)c1)S(C)(=O)=O | 43.1%
O=C(CSCc1ccccc1)Nc1ccc(Cl)cn1 | 8.76%
O=C(CSc1nnnn1-c1ccccc1)NC(=O)Cc1ccccc1 | 8.05%
COc1cccc(/C=C/C(=O)NNC(=O)c2ccncc2)c1OC | 11.4%
Cc1ccc(CN=c2c([N+](=O)[O-])nn(-c3ccc4c(c3)OCCO4)n2O)cc1 | 5.68%
Cc1csc(NC(=O)C2CCN(C(=O)CSc3nnc(C)n3Cc3ccccc3)CC2)n1 | -15.1%
CS(=O)(=O)Oc1ccc(Br)c2cccnc12 | -11.7%
C=CCn1c(SCC(=O)c2ccc(O)c(O)c2)nnc1-c1cccc(OC)c1 | 10.8%
CCOC(=O)C1=C(N)N2C(=O)C(C)SC2=C(C(=O)OCC)C1c1cc(OC)c(OC)c(OC)c1 (stereo not drawn) | 1.27%
CCOc1ccc(CN2CCNC(=O)C2CC(=O)NCc2ccccn2)cc1 (stereo not drawn) | -12.8%

Structure (SMILES) | hERG current change (%, negative = inhibition) at 10uM
CCc1cc(=O)oc2cc(C)cc(OC(C)C(=O)NC3CCN(Cc4ccccc4)CC3)c12 (stereo not drawn) | -32.8%
Cc1cc(=O)[nH]c(SC(C)C(=O)Nc2cccc3ccccc23)n1 (stereo not drawn) | 6.32%
CC(C)(C)Cc1nnc(NC(=O)c2ccc([N+](=O)[O-])cc2)s1 | 1.57%
Cc1ccc(OC(=O)c2cccc(S(=O)(=O)N3CCN(C)CC3)c2)c(Br)c1 | -19.5%
Cc1ccc(/C=C/C(=O)Nc2cc(C)on2)cc1 | 22.7%
CCOc1ccc(NC(=O)NCC2CCN(c3ccc(OC)cc3)C2)cc1 (stereo not drawn) | -7.35%
O=C(CSc1nnnn1-c1ccc2c(c1)OCCO2)c1cccc2c1OCCO2 | -7%
COc1ccc(CNC(=O)CSc2nnc3c(n2)[nH]c2ccccc23)cc1 | 12.7%
Cc1nc(CSc2nsc(C)c2C#N)cs1 | 0.507%
Cc1nn(CCC(N)=S)c2nc(-c3cccs3)cc(C(F)(F)F)c12 | 7.77%
Cc1ccc(OCCOCCN(C)C)c(Cl)c1.O=C(O)C(=O)O | -15.6%
CN(Cc1ccccc1)C(=O)CN1C(=O)COc2ccc(S(=O)(=O)N3CCCC3)cc21 | -19.4%
NC(=O)c1ccccc1NC(=O)c1ccc2ccccc2c1 | 25.6%
CC1Cn2c(CCc3ccccc3)nnc2S1 (stereo not drawn) | -10.9%
COC(=O)c1sccc1NC(=O)CCC1CCCC1 | 3.48%
CCOC(=O)c1c(CN(C)C)n(-c2ccccc2)c2cc(Br)c(OC)cc12 | -58.6%
O=C(O)c1cccnc1Nc1ccc(Cl)cc1 | 25%
COc1ccc(-c2cc(C(=O)Nc3ccc(C(N)=O)cc3)c3ccccc3n2)cc1 | 10.3%
COc1ccccc1NC(=O)COC(=O)CN1C(=O)C(=O)c2ccccc21 | 5.42%
COC(=O)CN(C)C(=O)c1ccccc1OC1CCN(S(C)(=O)=O)CC1 | 14.4%
OCC1OC(n2cnc3c(NCCc4ccccc4)ncnc32)C(O)C1O (stereo not drawn) | 27.8%
Cc1nc(Cc2nnc(SC(C)C(=O)N3c4ccccc4NC(=O)C3(C)C)o2)cs1 (stereo not drawn) | -3.46%
Fc1ccc(-c2cnc(-c3cccs3)o2)cc1 | 9.66%

Structure (SMILES) | hERG current change (%, negative = inhibition) at 10uM
CCOC(=O)C1(Cc2ccccc2)CCN(Cc2cnc(N3CCOCC3)s2)CC1 | -42.4%
NC(N)=Nc1nc(CCN2C(=O)c3ccccc3C2=O)cs1 | 13.1%
COc1ccccc1OCc1ccc(C(=O)Nc2ccc(Cl)cn2)o1 | -10.4%
NC(=Nc1ccc(Cl)cc1)c1ccccc1 | 0.791%
O=C(NNC(=O)c1cccc(O)c1)Nc1ccc([N+](=O)[O-])cc1 | 16.3%
Cc1ccc2ncnc(NCCCN3CCOCC3)c2c1 | -13.6%
O=C(/C=C\Nc1ccc(S(=O)(=O)Nc2ncccn2)cc1)c1cccc2ccccc12 | -5.3%
CC1(C)CC2CC(C)(CN2CC(=O)C(C#N)c2ccccc2)C1 (stereo not drawn) | 0.17%
O=C1Nc2ccc(F)cc2C12SCCS2 | 12.8%
Cc1ccc(F)cc1NC(=O)CCc1c(C)[nH]c(=O)c(C#N)c1C | 22.5%
COc1cc(C(N)=O)cc(Cl)c1OCc1ccccc1 | -1.84%
COc1ccc(N2CC(C(=O)N3CCN(Cc4ccc5c(c4)OCO5)CC3)CC2=O)cc1 (stereo not drawn) | -19%
CC1(C)SC2c3ccccc3C(=O)N2[C@@H]1C(=O)NC1CC1 (stereo partly drawn) | 9.97%
COc1ccc(C2/C(=C(/O)c3ccc(F)cc3)C(=O)C(=O)N2c2ccccn2)cc1OC (stereo not drawn) | 10.8%
O=C(NC(=S)Nc1ccccc1)c1ccc(-c2ccccc2)cc1 | 14.3%
C/C(=N\NC(=O)Cc1ccc(O)cc1)c1cccnc1 | 21.5%
COc1cc(/C=C2/C(=N)N3N=C(C)SC3=NC2=O)ccc1OS(=O)(=O)c1ccc(C)cc1 | 13.5%
Cc1cc(C)n(C(=O)CCCCCC(=O)n2nc(C)cc2C)n1 | 2.47%
Cc1ccc(CN2C(=O)C(Cc3ccccc3)Nc3ncnc(N4CCN(c5ccccc5)CC4)c32)cc1.O=C(O)C(F)(F)F (stereo not drawn) | 9.85%
CC(=O)CSc1ncnc2scc(-c3ccc(F)cc3)c12 | 10.7%
CCOc1ccc(NC(=O)CS(=O)(=O)c2cn(C)c3ccccc23)cc1 | 15.2%
CCS(=O)(=O)Nc1cccc(-c2nc3cccnc3s2)c1C | 6.04%
Cc1cnc(C(=O)OC(C(=O)c2c[nH]c3ccccc23)c2ccccc2)cn1 (stereo not drawn) | -25.3%

Structure (SMILES) | hERG current change (%, negative = inhibition) at 10uM
CCOC(=O)c1nnc2cc(-c3ccc(Br)cc3)nn2c1C | 4%
CCNc1nc(NCC)nc(C(=O)OCCO)n1 | 11.8%
Cc1cc(C)cc(-n2nnc(C(=O)NCc3ccccc3Cl)c2N)c1 | 7.98%
CCCCn1c(O)c(C(C)=Nc2ccc(C(=O)O)cc2)c(=O)[nH]c1=O | 12.1%
COc1ccc(CNC(=O)C2CCN(S(=O)(=O)c3ccc(SC)cc3)CC2)cc1 | 15.4%
CCC1(C)Cc2c(C#N)c(SC)nc(N3CCOCC3)c2CO1 (stereo not drawn) | -28.9%
CCC(=O)Nc1sc2c(c1C#N)CCCCC2 | 0.0585%
COc1cc(NC(=O)C2CC(c3ccccc3O)=NO2)c(OC)cc1Cl (stereo not drawn) | 13.8%
COc1cccc(CN2CCSCC2)c1 | 8.81%
CCOCc1nnc(NC(=O)C2CCN(C(=O)C3CC(=O)N(c4ccc(C)cc4)C3)CC2)s1 (stereo not drawn) | 7.93%
Cc1noc(C)c1CSCC(=O)OCC(=O)NC1CCCCC1 | 12.5%
COc1cc2cc(C(c3nnnn3C(C)(C)C)N3CCc4ccccc4C3)c(=O)[nH]c2cc1OC (stereo not drawn) | -23.2%
COCCC(=O)N1CCC(Oc2ccc(C(=O)NC(C)CCn3cccn3)cc2)CC1 (stereo not drawn) | 31.8%
COC(=O)c1ccc([N+](=O)[O-])c(CS(=O)(=O)c2ccc(Cl)cc2)c1 | -29.6%
CC(c1ccccc1)N1C(=O)C2C3CCC(C3)C2C1=O (stereo not drawn) | 11.1%
COc1cc(/C=N/n2cnnc2-n2nc(C)cc2C)cc([N+](=O)[O-])c1O | -20.3%
O=C(O)C1C2C=CC(O2)C1C(=O)NCc1ccc2c(c1)OCO2 (stereo not drawn) | 15.3%
CCOC(=O)C1CCCN(C(=O)c2ccc3oc(Cc4ccccc4)nc3c2)C1 (stereo not drawn) | -42.6%
COCCCNC(=O)c1ccc([N+](=O)[O-])c(Cl)c1 | -0.841%
Cc1ccc(NC(=O)Cn2nc(C)cc2C)cc1 | 11.6%
COC(=O)c1ccc(C23CC4(C2)[C@H](CN(Cc2ccc(-c5ccccc5)cc2)[C@@H]4c2ccccc2)C3c2ccc(Cl)nc2)cc1 (stereo partly drawn) | -5.37%
